# The list shows a part of the results.
# B1: XL-35 (Xenopus laevis) (protein)
# chain: MLVHILLLLVTGGLSQSCDPVVIVASKNMVKQLDCDKFRNCKEIKDSNEEAQDGIYTLTSPDGISYQTFCDMTTNGGGWTLVASVHENNMAGKCTIGDRWSSQQGNRADYPEGDGNWANYNTFGSAGGATSDDYKNPGYYDIEAYNLGVWHVPNKTPLSVWRNSSLQRYRTTDGILFKHGGNLFSLYRIYPVKYGIGSCSKDSGPTVPVVYDLGSANLTASFYSPGFRSQFTPGYIQFRPINTEKAALALCPGMKMESCNVEHVCIGGGGYFPEADPRQCGDFAAYDFNGYGTKKFNSAGIEITEAAVLLFYL
# Key:
# Assay in all cases: glycan array binding signal (z-score within array); higher = stronger binding
# Settings in all cases: glycan notation: IUPAC condensed, linker removed
# [1] = target: Gal(b1-3)GlcNAc(b1-3)GalNAc
# In short: (§1)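 Columns mapping to the same glycan were averaged after glycan names were converted to IUPAC-condensed notation. The data come from 3228 arrays in the Consortium for Functional Glycomics database, limited to those with an available protein sequence. Binding is reported as a within-array Z-score averaged across arrays of one protein sequence and across linkers.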
# [2] = target: Gal(b1-3)GlcNAc(b1-6)Gal(b1-4)GlcNAc
# In short: as §1
# [3] = target: Gal(b1-3)GlcNAc(b1-6)GalNAc
# In short: as §1
# [4] = target: Gal(b1-3)GlcNAc(b1-6)[Gal(b1-3)]GalNAc
# In short: as §1
# Gal(b1-3)GlcNAc6S = target: Gal(b1-3)GlcNAc6S
# In short: as §1
# [5] = target: Gal(b1-3)[Fuc(a1-4)]GlcNAc
# In short: as §1
# [6] = target: Gal(b1-3)[Fuc(a1-4)]GlcNAc(b1-2)Man
# In short: as §1
# [7] = target: Gal(b1-3)[Fuc(a1-4)]GlcNAc(b1-2)Man(a1-3)[Gal(b1-3)[Fuc(a1-4)]GlcNAc(b1-2)Man(a1-6)]Man(b1-4)GlcNAc(b1-4)[Fuc(a1-6)]GlcNAc
# In short: as §1
# [8] = target: Gal(b1-3)[Fuc(a1-4)]GlcNAc(b1-3)Gal(b1-3)[Fuc(a1-4)]GlcNAc
# In short: as §1
# [9] = target: Gal(b1-3)[Fuc(a1-4)]GlcNAc(b1-3)Gal(b1-4)GlcNAc
# In short: as §1
# [10] = target: Gal(b1-3)[Fuc(a1-4)]GlcNAc(b1-3)Gal(b1-4)[Fuc(a1-3)]GlcNAc
# In short: as §1
# [11] = target: Gal(b1-3)[Fuc(a1-4)]GlcNAc(b1-6)GalNAc
# In short: as §1
# [12] = target: Gal(b1-3)[GlcNAc(b1-6)]GalNAc
# In short: as §1
# [13] = target: Gal(b1-3)[GlcNAc(b1-6)]GlcNAc
# In short: as §1
# [14] = target: Gal(b1-3)[Neu5Ac(a2-6)]GalNAc
# In short: as §1
# [15] = target: Gal(b1-3)[Neu5Ac(a2-6)]GlcNAc
# In short: as §1
# [16] = target: Gal(b1-3)[Neu5Ac(a2-6)]GlcNAc(a1-4)Gal(b1-4)Glc
# In short: as §1
# [17] = target: Gal(b1-3)[Neu5Ac(a2-6)]GlcNAc(b1-4)Gal(b1-4)Glc
# In short: as §1
# [18] = target: Gal(b1-3)[Neu5Ac(b2-6)]GalNAc
# In short: as §1
# [19] = target: Gal(b1-3)[Neu5Ac(b2-6)]GlcNAc
# In short: as §1
# Gal(b1-4)Gal = target: Gal(b1-4)Gal
# In short: as §1
# [20] = target: Gal(b1-4)GalNAc(a1-3)[Fuc(a1-2)]Gal(b1-4)GlcNAc
# In short: as §1
# [21] = target: Gal(b1-4)GalNAc(b1-3)[Fuc(a1-2)]Gal(b1-4)GlcNAc
# In short: as §1
# Gal(b1-4)Glc = target: Gal(b1-4)Glc
# In short: as §1
# Gal(b1-4)Glc6S = target: Gal(b1-4)Glc6S
# In short: as §1
# Gal(b1-4)GlcNAc = target: Gal(b1-4)GlcNAc
# In short: as §1
# [22] = target: Gal(b1-4)GlcNAc(a1-6)Gal(b1-4)GlcNAc
# In short: as §1
# Gal(b1-4)GlcNAc(b1-2)Man = target: Gal(b1-4)GlcNAc(b1-2)Man
# In short: as §1
# [23] = target: Gal(b1-4)GlcNAc(b1-2)Man(a1-3)Man(b1-4)GlcNAc(b1-4)GlcNAc
# In short: as §1
# [24] = target: Gal(b1-4)GlcNAc(b1-2)Man(a1-3)[Gal(b1-4)GlcNAc(b1-2)Man(a1-6)]Man(b1-4)GlcNAc(b1-4)GlcNAc
# In short: as §1
# [25] = target: Gal(b1-4)GlcNAc(b1-2)Man(a1-3)[Gal(b1-4)GlcNAc(b1-2)Man(a1-6)]Man(b1-4)GlcNAc(b1-4)[Fuc(a1-6)]GlcNAc
# In short: as §1
# [26] = target: Gal(b1-4)GlcNAc(b1-2)Man(a1-3)[Gal(b1-4)GlcNAc(b1-2)Man(a1-6)][Gal(b1-4)GlcNAc(b1-4)]Man(b1-4)GlcNAc(b1-4)[Fuc(a1-6)]GlcNAc
# In short: as §1
# [27] = target: Gal(b1-4)GlcNAc(b1-2)Man(a1-3)[Gal(b1-4)GlcNAc(b1-2)Man(a1-6)][GlcNAc(b1-4)]Man(b1-4)GlcNAc(b1-4)[Fuc(a1-6)]GlcNAc
# In short: as §1
# [28] = target: Gal(b1-4)GlcNAc(b1-2)Man(a1-3)[GlcNAc(b1-2)Man(a1-6)]Man(b1-4)GlcNAc(b1-4)GlcNAc
# In short: as §1
# [29] = target: Gal(b1-4)GlcNAc(b1-2)Man(a1-3)[GlcNAc(b1-4)][Gal(b1-4)GlcNAc(b1-2)Man(a1-6)]Man(b1-4)GlcNAc(b1-4)GlcNAc
# In short: as §1
# [30] = target: Gal(b1-4)GlcNAc(b1-2)Man(a1-3)[Man(a1-6)]Man(b1-4)GlcNAc(b1-4)GlcNAc
# In short: as §1
# [31] = target: Gal(b1-4)GlcNAc(b1-2)Man(a1-6)Man(b1-4)GlcNAc(b1-4)GlcNAc
# In short: as §1
binder,measurement,setting,value
B1,glycan array binding signal (z-score),[1],-0.034
same,glycan array binding signal (z-score),[2],-0.191
same,glycan array binding signal (z-score),[3],-0.122
same,glycan array binding signal (z-score),[4],0.028
same,glycan array binding signal (z-score),Gal(b1-3)GlcNAc6S,0.119
same,glycan array binding signal (z-score),[5],-0.134
same,glycan array binding signal (z-score),[6],0.05
same,glycan array binding signal (z-score),[7],-0.308
same,glycan array binding signal (z-score),[8],-0.088
same,glycan array binding signal (z-score),[9],-0.059
same,glycan array binding signal (z-score),[10],-0.211
same,glycan array binding signal (z-score),[11],0.097
same,glycan array binding signal (z-score),[12],0.081
same,glycan array binding signal (z-score),[13],-0.039
same,glycan array binding signal (z-score),[14],-0.356
same,glycan array binding signal (z-score),[15],-0.064
same,glycan array binding signal (z-score),[16],-0.076
same,glycan array binding signal (z-score),[17],0.794
same,glycan array binding signal (z-score),[18],-0.422
same,glycan array binding signal (z-score),[19],-0.08
same,glycan array binding signal (z-score),Gal(b1-4)Gal,-0.258
same,glycan array binding signal (z-score),[20],-0.133
same,glycan array binding signal (z-score),[21],-0.157
same,glycan array binding signal (z-score),Gal(b1-4)Glc,-0.036
same,glycan array binding signal (z-score),Gal(b1-4)Glc6S,-0.075
same,glycan array binding signal (z-score),Gal(b1-4)GlcNAc,-0.066
same,glycan array binding signal (z-score),[22],-0.375
same,glycan array binding signal (z-score),Gal(b1-4)GlcNAc(b1-2)Man,-0.02
same,glycan array binding signal (z-score),[23],0.168
same,glycan array binding signal (z-score),[24],-0.128
same,glycan array binding signal (z-score),[25],-0.008
same,glycan array binding signal (z-score),[26],-0.344
same,glycan array binding signal (z-score),[27],-0.399
same,glycan array binding signal (z-score),[28],-0.054
same,glycan array binding signal (z-score),[29],-0.127
same,glycan array binding signal (z-score),[30],-0.12
same,glycan array binding signal (z-score),[31],-0.108

# Source: the supplement of paper PMC8728848
